Experimental data: the supplement of paper PMC11417369
± gives the standard deviation of the averaged measurements. This is one part of the list.

What follows are sequences tested on PfAP2-LT AP2 domain (GST-tagged) (assay: gcPBM binding intensity (ln(normalized median fluorescence intensity)); higher = stronger DNA binding).
How it was run: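 Binding intensity is the highest Masliner-normalised natural-log median intensity over replicate spots in either probe orientation. To obtain it, GST-tagged P. falciparum DNA-binding domains made in E. coli were incubated for 1 h on an Agilent 4 × 180k array of primer-extended double-stranded 36-bp intergenic genomic probes plus negative controls. Detection used Alexa488 anti-GST antibody with scanning at 488 nm.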

| Sequence | gcPBM binding intensity (ln) |
| --- | --- |
| AATTAATGGTTAAAGGTGCACAATACATATATTACA [GTGCAC_site9943] | 9.14 ± 0.41 |
| ATATTAAACAAACACACACACATATATATATATATA [CACACA_site3383] | 10.2 ± 0.35 |
| ATATATTGAAAATATAGTACATAATAAATGTTCTTT [XGTACX_site8474] | 8.56 ± 0.4 |
| TTTTTTTTTTTTTTTTTTTTTTTTTTTTTTTGGGGG [CACACA_negctrl_site1570] | 9.26 ± 0.31 |
| AATGTAGTTTATCGATGTACACAAAATAAAGAGAAG [XGTACX_site6956] | 9.03 ± 0.43 |
| CCGTACAATTTTGTCACACATAAAATACTTATGTAT [CACACA_site4871] | 8.71 ± 0.42 |
| TAGTATTTATATGATTAACACACATATGGGTATTAA [CACACA_site8363] | 8.77 ± 0.35 |
| CATAATAGTTATAAAATACACACCAGGCATGATAAA [CACACA_site329] | 9 ± 0.4 |
| AAAAAAAAAAAAAAAAGTACTCAATAATAATTACAT [XGTACX_site670] | 8.5 ± 0.4 |
| ATAATGTTCACATAGGTGCACTAATATAATTATCCA [GTGCAC_site9981] | 8.83 ± 0.38 |
| ATATACACCTGAGAGGTGCATATATATAAAATTTAC | 8.7 ± 0.42 |
| AAAGTAAAAGGGTTTGGTACACATATAATATATTAG [XGTACX_site6036] | 8.79 ± 0.52 |
| CATTTATATAAAGAATGTACACACAGAAATGCACAC [XGTACX_site4718] | 9.51 ± 0.22 |
| AGTAAAAGAAAGCACACACACATGTATTTATGTATG [CACACA_site5998] | 9.71 ± 0.42 |
| ATAACTTTTATTTGTACACACATACATCTATATTAT [CACACA_site6595] | 9.4 ± 0.41 |
| GTAATTTTTTTCTATACACACATATATATAATATAT [CACACA_site2655] | 9.03 ± 0.38 |
| AATATAAATATAAATATAAATAAATAAATAAATAAA [CACACA_negctrl_site291] | 8.67 ± 0.55 |
| CATTATTATTTTATAACACACACATATATATTATAT [CACACA_site8405] | 9.21 ± 0.31 |
| ATGTTTTTTATTCTTCGTACGTATGAACGATAGTGT [XGTACX_site4225] | 9.02 ± 0.36 |
| AAACGTATGTTATTTACACACCCTTCCACTTTTATA [CACACA_site3337] | 9.02 ± 0.44 |
| TATAAAATAAGACATGCATGTTATACATATATATTT [TGCATGCA_site156] | 9.03 ± 0.45 |
| TTTTTTTTTTCTACAAGTACATATTTTCATTTAACA [XGTACX_site6621] | 8.49 ± 0.47 |

| Sequence | gcPBM binding intensity (ln) |
| --- | --- |
| AAATTAAAAAAAAATAAATAAAAAAAAAAAAAAAAT [CACACA_negctrl_site1611] | 8.58 ± 0.61 |
| AAAAAAAAAAAAAAATGTACATATATATATTATAAA [XGTACX_site518] | 8.63 ± 0.52 |
| ATGTGCAAATATTAAAGTACTAAATTTTATTATTTT [XGTACX_site7306] | 8.79 ± 0.46 |
| ATAAATACATATAAAAGTACACACACACACATATAT [XGTACX_site1744] | 10.03 ± 0.064 |
| TGAAATTTCAATACATGTACATATAAAAAAAAAAAA [XGTACX_site4424] | 8.79 ± 0.41 |
| TGTATATGTGAAGCAAGGGATGCGGCAGACATAACA [CACACA_negctrl_site1339] | 9.21 ± 0.4 |
| GGGTATATATTATTATGTACACATGTATAAAATAAG [XGTACX_site2633] | 8.8 ± 0.52 |
| CAGATAGACTTATATGCATGCATTCACCTGCCAACA [TGCATGCA_site158] | 8.99 ± 0.5 |
| ATATTACATAATATATGTACACACGCAAATACTTAT [XGTACX_site671] | 9.2 ± 0.31 |
| ATGAAATTATATTGGGGTACGTCAAAAAAGGAGATA [XGTACX_site7451] | 8.83 ± 0.49 |
| TAAGCATAAATGTATACATGCGATGCATACACATAT [TGCATGCA_site749] | 8.82 ± 0.4 |
| TTTGTGTATATATAATGTACATTATATTTTTATTAT [XGTACX_site6506] | 8.95 ± 0.42 |
| TATAAATTTATAAATAGTACATATATTTATATATAT [XGTACX_site6433] | 8.55 ± 0.45 |
| ATTAAAAAAAAAGAGCGTACAAATAATTACTTCTTT [XGTACX_site8262] | 8.55 ± 0.54 |
| AAAAAAAATATACATACATGCATACATAAGTTTCTA [TGCATGCA_site998] | 8.73 ± 0.52 |
| TATATATATGGACACACACACACATATATATATATA [CACACA_site6121] | 10.3 ± 0.23 |
| ATATTAAGAATAAACAGTACATATAATAAATACCAT [XGTACX_site5933] | 9.03 ± 0.46 |
| AAAAAAAAAAAAATTACACACATACATATAATAATA [CACACA_site8680] | 8.91 ± 0.35 |
| AAAAAAAAAAGAAACACACACATTTGTATTTAATAT [CACACA_site5184] | 9.21 ± 0.37 |
| GTGATTTAATTGTGTTGTACATATTTATAAATAAAA [XGTACX_site8966] | 8.46 ± 0.32 |
| GTACAGATAAATATTACACACATTTTCATTTTTAAC [CACACA_site5140] | 8.97 ± 0.37 |
| AAAAAGAAAAAACGAAGTACAATTATAAGATTATAT [XGTACX_site410] | 8.86 ± 0.47 |

| Sequence | gcPBM binding intensity (ln) |
| --- | --- |
| TTGTTCTTTTTTTTTTTATTTTTTAATTTGAAAAGA [CACACA_negctrl_site209] | 8.21 ± 0.43 |
| TATGAAAAATATCTTTGTACTTAGAAATATATACAC [XGTACX_site5393] | 8.46 ± 0.44 |
| TATGTGCCAAGACACACACACATATTTATATTTATA [CACACA_site6360] | 9.74 ± 0.23 |
| TTATTATTATATGAATGTACTTAAAAATACATTTTG [XGTACX_site2959] | 8.47 ± 0.44 |
| ATTCTATATACACGCACACACACTTATATATATATA [CACACA_site3322] | 9.7 ± 0.22 |
| CCCTTTTCTAAATATTGTACGTATAAATTATATTAC [XGTACX_site7676] | 8.86 ± 0.61 |
| AGAGATTATAAAATATGTACTAAATATTAAATCTTA [XGTACX_site7050] | 8.54 ± 0.47 |
| AAAAAAATATTATAATATATATATATATATATATAT [GTGCAC_negctrl_site399] | 9.03 ± 0.15 |
| AAAGAAAGCACATACACACACAAAAAAAAAAAAGAA [CACACA_site776] | 9.63 ± 0.35 |
| AAAGTAAAAATATACTGTACAAATTTTTTCCCCTCT [XGTACX_site171] | 8.74 ± 0.36 |
| ATTTTTTAAAAAGTAACACACACTCTTATAAATAAC [CACACA_site7668] | 8.87 ± 0.29 |
| ATATTTATATACAAATGTACGCATATAATATATATA [XGTACX_site1232] | 8.77 ± 0.33 |
| GATGCACTTTAAAAATGTACTTATACCTTTAATTGT [XGTACX_site6395] | 8.76 ± 0.41 |
| AAACAAAAAAAAAAAAAAAAAAAAAAAAAAAAAAAA [GTGCAC_negctrl_site254] | 8.21 ± 0.45 |
| GAAATGTATATTTTTACATGCAAATAAAATATATAA [TGCATGCA_site439] | 8.6 ± 0.4 |
| CATACACATAGACACACACACATATATACCTATATA [CACACA_site6644] | 9.72 ± 0.42 |
| ATAACGACCTAGACGTGTACATACAAAGGAATGAAA [XGTACX_site4870] | 9.17 ± 0.51 |
| TTTTTCTTGAATCGAAGTACTTAGGAGGGGATATTT [XGTACX_site2862] | 8.91 ± 0.014 |
| ACACAATATATATATTGTACATACACATATTTACTA [XGTACX_site1872] | 9 ± 0.38 |
| GAATATAAACATATTACACACATCTATAGGTACATT [CACACA_site6983] | 9.2 ± 0.32 |
| AATATATACATATATGTACACACATTACAGATGTAC [CACACA_site8227] | 9.2 ± 0.29 |
| ATAGAATCTGGTAGCTGTACGAGTCGTAGAGTGCAG [XGTACX_site2026] | 9.06 ± 0.46 |

| Sequence | gcPBM binding intensity (ln) |
| --- | --- |
| AGGACTAATATTTGAACACACATATAATATATACAT [CACACA_site3998] | 9.02 ± 0.45 |
| TTTTGTAATTCTCTTCATATAATTTATATATATATA [CACACA_negctrl_site1825] | 8.56 ± 0.42 |
| GTGTTTTTTTTAGATTGTACATATATATATATATAT [XGTACX_site4562] | 9.43 ± 0.42 |
| ACCCAACATATGTGTACACAGAAAATAAATATAATA [CACACA_site5901] | 9.05 ± 0.49 |
| GTATATATTCATATGGAAAATAAAGGAGAAAACAAG [TGCATGCA_negctrl_site220] | 8.88 ± 0.38 |
| ATGTATGTATAATATACACACTCACAAGCATTCAAA [CACACA_site4306] | 9.08 ± 0.38 |
| TTTGTTTTTTCTTTTTGTACATATACAAGATACGTA [XGTACX_site2309] | 8.63 ± 0.35 |
| AATAAAAACTAAACATGTACGCACATATATATATAT [XGTACX_site8096] | 9.63 ± 0.26 |
| TAAGTGCATGAGATATGTACATATATAAAATATATA [XGTACX_site3294] | 9.08 ± 0.67 |
| TAAAAAAAAAAAAATACACACACACCGATATATATA [CACACA_site8498] | 9.76 ± 0.19 |
| TCATAGTCTTAATGACTACACACCTAACTATGCATG [CACACA_site1839] | 9 ± 0.47 |
| ATATATATACATACATACCTATGTATATGTGTAATT [GTGCAC_negctrl_site50] | 8.82 ± 0.38 |
| ATGGTAGTGATTAAAAGTACACGTAATTGTAAAAAT [XGTACX_site387] | 9.04 ± 0.53 |
| TAAACAACTTATAAATGTACACATATTTTAATTACC [XGTACX_site5409] | 8.69 ± 0.44 |
| ATAAACATATCAATATGTACATATTTTTGTTTGTAT [XGTACX_site7018] | 8.93 ± 0.48 |
| ATTTATCAATAAAATGCACACACTGTAATATTATTA [CACACA_site3976] | 9.03 ± 0.36 |
| AAACCACAAAATTTTTTATATATGACCAATACATAG [CACACA_negctrl_site277] | 8.64 ± 0.45 |
| TTATAATAGTTAAATGTACACACTAACTACATGGAA [CACACA_site9070] | 8.85 ± 0.42 |
| TTATAAATTATAGGTACACACAAAAAAAAAAAGAAA [CACACA_site1327] | 8.87 ± 0.51 |
| ATTTGTTACACTAAATGTACATACATACATATATAT [XGTACX_site6175] | 9.1 ± 0.52 |
| AGCACAGACGGACACACACACATATATATATATATA [CACACA_site4341] | 10.37 ± 0.085 |
| ATATATATGTATGTATGTACATATTTGAATTTATTT [XGTACX_site8470] | 8.97 ± 0.54 |
